# From the supplement of paper PMC3334620
# The full ranking holds about 33,000 sequences; the median of “E-score (-0.5 to 0.5)” is about -0.04, and the highest 2% start at about 0.36. This is one part of the list.
# Target: T1, Hmlalpha2 (UniProt P0CY09)
# T1 sequence: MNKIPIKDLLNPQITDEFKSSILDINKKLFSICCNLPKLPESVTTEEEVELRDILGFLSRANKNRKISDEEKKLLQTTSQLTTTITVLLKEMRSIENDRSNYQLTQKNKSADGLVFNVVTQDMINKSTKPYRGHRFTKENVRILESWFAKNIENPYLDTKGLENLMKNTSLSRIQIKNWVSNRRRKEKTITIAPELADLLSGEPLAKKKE
# Assay: PBM E-score (8-mer binding enrichment) (E-score (-0.5 to 0.5)); higher = stronger / more preferred TF binding; most listed sequences are background and not binding sites
# Conditions: protein concentration: 200 nM; construct: GST-full length
# How it was run: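 Universal all-10-mer Agilent arrays, fresh or stripped once, were converted to double-stranded form by primer extension. GST-tagged yeast transcription factors from PURExpress in vitro transcription/translation, full-length or DNA-binding domain only, were applied at about 100-200 nM and detected with fluorescent anti-GST. After masliner normalisation, the Universal PBM Analysis Suite scored each ungapped eight-base word together with its reverse complement by E-score.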
row,Sequence,PBM E-score
1,CGTATAGC,0.135
2,ATTGGGAG,-0.0721
3,TAGCAATA,0.182
4,ACCAAAGA,0.107
5,CACTACTC,0.0391
6,AATATTTA,0.207
7,ATGCACTG,0.0249
8,GGCATTGA,-0.0172
9,AAATTCGA,-0.146
10,TCCACACA,0.146
11,AGATCGAC,-0.00654
12,CAGTGTCG,-0.102
13,CTAAAAAG,-0.0792
14,GCCAAGGC,-0.373
15,CCAAATGA,0.0486
16,GCAGTCAA,-0.18
17,AGCTGGGC,-0.218
18,GATCATTA,0.19
19,AGCGGAAT,0.0242
20,CGAACGCC,-0.239
21,ACACGGTC,0.397
22,AGTTACAG,0.0744

row,Sequence,PBM E-score
1,CACGATAG,0.0888
2,CACACAGC,0.201
3,CCTGAATA,0.13
4,AATATTGC,0.163
5,AATGACGA,0.148
6,AAATGTGA,0.134
7,AGCGCTCA,-0.199
8,CCTTGTCA,0.179
9,ACTCTCAC,-0.0198
10,AGATACTG,0.0776
11,AATTGCGT,0.201
12,CATAATAA,0.281
13,ACCGTATA,-0.0532
14,AAGCCGCT,-0.258
15,ATAGAAAA,0.0719
16,AGACGGAT,0.0382
17,CAGAGGCA,-0.101
18,CGAATTCG,-0.188
19,GAACGCGA,0.147
20,AGAGCAGA,0.0438
21,CGCGCACC,-0.0573
22,ATATGTAC,0.337

row,Sequence,PBM E-score
1,CGTCCAGA,-0.227
2,GCATATCC,-0.107
3,AGTATAAT,0.123
4,CTCGCCGA,-0.16
5,ACGTGTAC,0.382
6,CAATCCAA,-0.0874
7,AGGCGTTA,0.00303
8,ATCGGATC,-0.0781
9,CAAAGATA,-0.042
10,TACTACCA,-0.0546
11,GACTACTC,-0.0288
12,CCGTGCAG,0.0738
13,CCGGACAC,-0.247
14,ATCTTGCA,0.133
15,GAAGCACC,-0.191
16,AACCGGGT,-0.0442
17,ACACAGAA,0.168
18,CAGGTCAG,-0.303
19,GCAGGTCA,-0.206
20,AAGCAGCC,-0.315
21,GGAAACGA,-0.0281
22,TCCGCCGA,-0.0873

row,Sequence,PBM E-score
1,AACCGGTT,0.15
2,AATGCCAT,0.022
3,AGAATTAA,0.0413
4,ACGCTCTC,0.037
5,TCATATGA,0.0929
6,CTAACGTA,0.255
7,GGTATCTA,0.0627
8,GTAATTAA,0.326
9,AGAGTGAC,-0.195
10,AGGCTTTC,-0.00583
11,ACAACTTG,0.107
12,CGTTGAGA,0.0342
13,CTATGTCA,0.333
14,ACTATTGG,-0.206
15,CCTAATGA,0.0161
16,ACCCTTGC,-0.209
17,ACACCACA,0.211
18,GATTATGC,-0.257
19,ACGGCAAC,0.0456
20,GATATAAA,0.00631
